# Assay results from PubChem BioAssay AID2675 (National Center for Advancing Translational Sciences (NCATS), 2010).
# The campaign covered roughly 280,000 compounds. About 100 (0.036%) were called active. The shares of active, inactive and inconclusive entries below differ from those in the screen. The call rests on the fitted dose curve; in most records, active means well fitted inhibition curve with a large enough effect in the signal ratio, with a control signal flat (not every such curve was filed as active); inconclusive means small, poorly fitted or top-dose-only effect, or effect the other way, or a change in a side signal; inactive means no such curve, though single readings can be large or run the other way; the % refers to the signal ratio. Potencies of inconclusive entries are doubtful fits and often do not repeat. “Side channel” marks fits to a control or component signal instead of the main read-out.
# Target: Muscleblind-like protein 1 (Homo sapiens) (UniProt Q9NR56)
# Sequence of UniProt Q9NR56 (Q9NR56 whole entry, looked up): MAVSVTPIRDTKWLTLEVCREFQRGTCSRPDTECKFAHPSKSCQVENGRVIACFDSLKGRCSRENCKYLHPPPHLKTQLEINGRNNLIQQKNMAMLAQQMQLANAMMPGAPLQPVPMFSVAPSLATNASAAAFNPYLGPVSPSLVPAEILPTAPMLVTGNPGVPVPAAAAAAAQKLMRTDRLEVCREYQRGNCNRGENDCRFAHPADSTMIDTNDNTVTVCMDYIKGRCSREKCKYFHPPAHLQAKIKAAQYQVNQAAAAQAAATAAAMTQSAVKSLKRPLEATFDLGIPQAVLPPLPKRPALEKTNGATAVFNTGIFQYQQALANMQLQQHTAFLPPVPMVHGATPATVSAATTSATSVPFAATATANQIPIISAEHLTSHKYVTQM
# Assay: qHTS Assay for Inhibitors of MBNL1-poly(CUG) RNA binding
# Settings: TR-FRET MBNL1-His/biotin-(CUG)12 binding, 665/545 ratio; series mostly up to 57.5 µM
# In short: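 His-tagged MBNL1 binding to biotinylated (CUG)12 RNA was measured by TR-FRET using terbium anti-His antibody (0.055 ng/ul final) and streptavidin-XL665 (5 nM final). Compounds were titrated 92 nM to 58 uM; 60 min at room temperature.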
# Potency means the concentration at half of the fitted maximal effect; tags describe the fitted curve by direction and shape or compound fluorescence and quenching.
row,SMILES,Potency
1,COc1ccc(C2=NN3C(=O)c4c(ccc(OC)c4OC)C3C2)cc1 (stereo unspecified),"inconclusive: 28.2 µM [quencher, single point]"
2,CC(=O)Oc1ccc(N2C(=O)CCC2=O)cc1,"inconclusive: 0.112 µM [inhibitor, full curve, poor fit]"
3,Cc1cc(C)cc(NC(=O)N2CCC(NC(=O)c3ccccc3C)CC2)c1,"inconclusive: 79.4 µM [inhibitor, single point]"
4,CC(=O)Nc1ccc(S(=O)(=O)N2CCC(n3cnc4cc(F)ccc43)CC2)cc1,inactive
5,O=C(NCc1ccco1)/C(=C\c1cccc([N+](=O)[O-])c1)NC(=O)c1ccco1,"inconclusive: 12.6 µM [quencher, side channel, partial curve]"
6,Cc1cc(=O)n2[nH]c(=O)c(N=Nc3ccccc3)c2[nH]1,"inconclusive: 12.6 µM [quencher, side channel, partial curve]"
7,CN(C)S(=O)(=O)c1cccc(NC(=S)N/N=C/c2cc(Br)ccc2O)c1,inactive
8,CCN(CC(=O)Nc1ccc(NC(C)=O)cc1)C(=O)CCN1C(=O)c2cccc([N+](=O)[O-])c2C1=O,"inconclusive: 6.31 µM [quencher, side channel, partial curve]"
9,COc1ccc([N+](=O)[O-])cc1NC(=O)CCC(=O)c1cccs1,"inconclusive: 14.1 µM [quencher, partial curve]"
10,COc1cc(/C=N/Nc2nc(C)cc(C)n2)cc(OC)c1OC,"inconclusive: 35.5 µM [quencher, side channel, single point]"
11,CN(C)CCN1C(=O)C(=O)/C(=C(/O)c2ccc(F)cc2)C1c1ccccc1F (stereo unspecified),"inconclusive: 31.6 µM [quencher, side channel, partial curve]"
12,COc1ccc(N=C2S/C(=C\c3cc(C)n(C)c3C)C(=O)N2C)cc1,"inconclusive: 20 µM [quencher, side channel, partial curve]"
13,Cc1ccc(C(=O)N/N=C\c2cc3c(cc2Br)OCO3)cn1,inactive
14,O=CN/N=C/c1c(O)ccc2ccccc12,"inconclusive: 20 µM [quencher, side channel, single point]"
15,O=C(COc1ccc([N+](=O)[O-])cc1)NNC(=O)Nc1ccc([N+](=O)[O-])cc1,"inconclusive: 11.2 µM [quencher, side channel, partial curve]"
16,CN(CC(=O)NC(c1ccccc1)c1ccccc1)Cc1nc2ccccc2c(=O)[nH]1,inactive
17,O=C(c1ccccc1)c1ccc(-n2cnnc2)c([N+](=O)[O-])c1,"inconclusive: 8.91 µM [quencher, full curve]"
18,O=C(O)c1ccc(CN2C(=O)c3ccc(Oc4ccc([N+](=O)[O-])cc4)cc3C2=O)cc1,"inconclusive: 7.94 µM [quencher, partial curve]"
19,CCN(CC)C(=S)SCC(=O)Nc1nc(=O)c2ccccc2s1,inactive
20,CNC1=C(N(C(C)=O)c2ccc(Br)cc2)C(=O)c2ccccc2C1=O,"inconclusive: 2.51 µM [quencher, side channel, partial curve]"
21,CS(=O)(=O)N(CC(=O)Nc1ccccc1C(=O)N1CCOCC1)c1cccc([N+](=O)[O-])c1,"inconclusive: 17.8 µM [quencher, side channel, partial curve]"

row,SMILES,Potency
1,Cc1ccc(C(O)c2nccn2C)o1 (stereo unspecified),"inconclusive: 25.1 µM [quencher, side channel, partial curve, poor fit]"
2,CCC(C)N1CCN(C(=O)C2CCN(S(=O)(=O)c3c(C)noc3/C=C/c3ccco3)CC2)CC1 (stereo unspecified),"inconclusive: 25.1 µM [quencher, side channel, partial curve]"
3,COc1ccc2[nH]c(=O)c(CN(C(=O)c3cccnc3)c3cccc(C)c3)cc2c1,inactive
4,Cc1cnn(CCC(=O)NNC(=S)NCC(C)C)c1,inactive
5,COc1cc2cc(CN(CCN3CCCC3)C(=O)Nc3ccc(F)cc3)c(=O)[nH]c2cc1OC,inactive
6,CC(=O)Nc1cccc(NC(=O)CCNC(=O)c2ccccc2)c1,inactive
7,CN(C)C(CNC(=O)c1ccc(NS(=O)(=O)c2cccc([N+](=O)[O-])c2)cc1)c1ccco1 (stereo unspecified),"inconclusive: 15.8 µM [quencher, partial curve]"
8,COc1ccc2nc(N3CCCC3)c(C#N)cc2c1,inactive
9,CCC1(C)Cc2c(sc3nc(NC)n(C)c(=O)c23)CO1 (stereo unspecified),"inconclusive: 15.8 µM [quencher, side channel, partial curve]"
10,Cc1cccc(NC(=S)N/N=C/c2ccc([N+](=O)[O-])s2)c1,"inconclusive: 14.1 µM [quencher, side channel, partial curve]"
11,O=C(NCCN1C(=O)S/C(=C\c2cccs2)C1=O)c1ccco1,"inconclusive: 15.8 µM [quencher, side channel, partial curve]"
12,S=C(NCc1ccc(Cl)c(Cl)c1)Nc1ccc2c(c1)OCO2,"inconclusive: 44.7 µM [fluorescent, side channel, partial curve]"
13,Cc1ccc(OCc2nc(C#N)c(NCc3ccc4c(c3)OCO4)o2)cc1,inactive
14,CCCc1cc(=O)oc2cc(C)cc(OCC(=O)Nc3ccccn3)c12,inactive
15,O=C(O)CCc1ccc(-c2ccc(Br)cc2)n1NC(=O)c1ccc([N+](=O)[O-])cc1,"inconclusive: 17.8 µM [quencher, side channel, partial curve]"
16,CC(NC(=O)c1cccc(F)c1)C(c1cccs1)N1CCN(C)CC1 (stereo unspecified),"inconclusive: 79.4 µM [inhibitor, single point]"
17,CN(C)C(=O)c1cc2cc([N+](=O)[O-])ccc2s1,"inconclusive: 11.2 µM [quencher, side channel, partial curve]"
18,CC1CCN(CCCOc2ccc(Br)cc2Cl)CC1,inactive
19,O=C(CNS(=O)(=O)c1ccccc1)Nc1cccc([N+](=O)[O-])c1,"inconclusive: 20 µM [quencher, side channel, partial curve]"
20,O=C(COC(=O)/C=C/c1ccc([N+](=O)[O-])cc1)NCC1CCCO1 (stereo unspecified),"inconclusive: 8.91 µM [quencher, side channel, partial curve]"
